From paper PMC9911399, “Two distinct binding modes provide the RNA-binding protein RbFox with extraordinary sequence specificity”
Substitutions are numbered along the chain they refer to; changes in the protein carry UniProt numbers. The list shows a part of the results.

T1: RBFOX1 RRM (Homo sapiens, UniProt Q9NWB1 109-208)
T1 sequence: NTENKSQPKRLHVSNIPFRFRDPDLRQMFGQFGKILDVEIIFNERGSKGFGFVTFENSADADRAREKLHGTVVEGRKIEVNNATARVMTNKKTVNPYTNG

B1: UCUUCCG (DNA:RNA)
RNA: GGGAGACCGGAAUUCAGAUUGUCCUCUUCCGUUAAAUCCCGUCGUAGCCACCA
DNA 1: CAATCTGAATTCCGGTCTCCC
DNA 2: TGGTGGCTACGACGGGATT
B2: AGGCAUU (DNA:RNA)
RNA: GGGAGACCGGAAUUCAGAUUGUCCAGGCAUUUUAAAUCCCGUCGUAGCCACCA
DNA 1: CAATCTGAATTCCGGTCTCCC
DNA 2: TGGTGGCTACGACGGGATT
B3: UAAUAGC (DNA:RNA)
RNA: B1 RNA with C26A, U27A, C29A, C30G, G31C
DNA 1: CAATCTGAATTCCGGTCTCCC
DNA 2: TGGTGGCTACGACGGGATT
B4: ACAAAUC (DNA:RNA)
RNA: B2 RNA with G26C, G27A, C28A, U31C
DNA 1: CAATCTGAATTCCGGTCTCCC
DNA 2: TGGTGGCTACGACGGGATT
B5: GCGCAGA (DNA:RNA)
RNA: B2 RNA with A25G, G26C, U30G, U31A
DNA 1: CAATCTGAATTCCGGTCTCCC
DNA 2: TGGTGGCTACGACGGGATT
B6: CUAAUGC (DNA:RNA)
RNA: GGGAGACCGGAAUUCAGAUUGUCCCUAAUGCUUAAAUCCCGUCGUAGCCACCA
DNA 1: CAATCTGAATTCCGGTCTCCC
DNA 2: TGGTGGCTACGACGGGATT
B7: GAAGAGG (DNA:RNA)
RNA: B6 RNA with C25G, U26A, A28G, U29A, C31G
DNA 1: CAATCTGAATTCCGGTCTCCC
DNA 2: TGGTGGCTACGACGGGATT
B8: CACGUAA (DNA:RNA)
RNA: B6 RNA with U26A, A27C, A28G, G30A, C31A
DNA 1: CAATCTGAATTCCGGTCTCCC
DNA 2: TGGTGGCTACGACGGGATT
B9: GCUUUUC (DNA:RNA)
RNA: B1 RNA with U25G, C29U, C30U, G31C
DNA 1: CAATCTGAATTCCGGTCTCCC
DNA 2: TGGTGGCTACGACGGGATT
B10: GCGGUAC (DNA:RNA)
RNA: B6 RNA with C25G, U26C, A27G, A28G, G30A
DNA 1: CAATCTGAATTCCGGTCTCCC
DNA 2: TGGTGGCTACGACGGGATT
B11: UUUAUCC (DNA:RNA)
RNA: B6 RNA with C25U, A27U, G30C
DNA 1: CAATCTGAATTCCGGTCTCCC
DNA 2: TGGTGGCTACGACGGGATT
B12: GUCCGGU (DNA:RNA)
RNA: B2 RNA with A25G, G26U, G27C, A29G, U30G
DNA 1: CAATCTGAATTCCGGTCTCCC
DNA 2: TGGTGGCTACGACGGGATT
B13: UAUCUAA (DNA:RNA)
RNA: B1 RNA with C26A, U28C, C29U, C30A, G31A
DNA 1: CAATCTGAATTCCGGTCTCCC
DNA 2: TGGTGGCTACGACGGGATT
B14: UGGGCCA (DNA:RNA)
RNA: B1 RNA with C26G, U27G, U28G, G31A
DNA 1: CAATCTGAATTCCGGTCTCCC
DNA 2: TGGTGGCTACGACGGGATT
B15: AUGGGGG (DNA:RNA)
RNA: B2 RNA with G26U, C28G, A29G, U30G, U31G
DNA 1: CAATCTGAATTCCGGTCTCCC
DNA 2: TGGTGGCTACGACGGGATT
B16: AUUGUCA (DNA:RNA)
RNA: B6 RNA with C25A, A27U, A28G, G30C, C31A
DNA 1: CAATCTGAATTCCGGTCTCCC
DNA 2: TGGTGGCTACGACGGGATT
B17: GAGUGUA (DNA:RNA)
RNA: B2 RNA with A25G, G26A, C28U, A29G, U31A
DNA 1: CAATCTGAATTCCGGTCTCCC
DNA 2: TGGTGGCTACGACGGGATT
B18: AAACGUA (DNA:RNA)
RNA: B2 RNA with G26A, G27A, A29G, U31A
DNA 1: CAATCTGAATTCCGGTCTCCC
DNA 2: TGGTGGCTACGACGGGATT
B19: CCUCCAC (DNA:RNA)
RNA: B1 RNA with U25C, U28C, C30A, G31C
DNA 1: CAATCTGAATTCCGGTCTCCC
DNA 2: TGGTGGCTACGACGGGATT
B20: GUGCACC (DNA:RNA)
RNA: B2 RNA with A25G, G26U, U30C, U31C
DNA 1: CAATCTGAATTCCGGTCTCCC
DNA 2: TGGTGGCTACGACGGGATT
B21: CAUAGUC (DNA:RNA)
RNA: B6 RNA with U26A, A27U, U29G, G30U
DNA 1: CAATCTGAATTCCGGTCTCCC
DNA 2: TGGTGGCTACGACGGGATT
B22: UAUUUUU (DNA:RNA)
RNA: B1 RNA with C26A, C29U, C30U, G31U
DNA 1: CAATCTGAATTCCGGTCTCCC
DNA 2: TGGTGGCTACGACGGGATT
B23: AUUGGGU (DNA:RNA)
RNA: B2 RNA with G26U, G27U, C28G, A29G, U30G
DNA 1: CAATCTGAATTCCGGTCTCCC
DNA 2: TGGTGGCTACGACGGGATT
B24: UUCCACC (DNA:RNA)
RNA: B2 RNA with A25U, G26U, G27C, U30C, U31C
DNA 1: CAATCTGAATTCCGGTCTCCC
DNA 2: TGGTGGCTACGACGGGATT
B25: UCACUCC (DNA:RNA)
RNA: B6 RNA with C25U, U26C, A28C, G30C
DNA 1: CAATCTGAATTCCGGTCTCCC
DNA 2: TGGTGGCTACGACGGGATT
B26: AGGGUAA (DNA:RNA)
RNA: B2 RNA with C28G, A29U, U30A, U31A
DNA 1: CAATCTGAATTCCGGTCTCCC
DNA 2: TGGTGGCTACGACGGGATT
B27: AACGUAG (DNA:RNA)
RNA: B2 RNA with G26A, G27C, C28G, A29U, U30A, U31G
DNA 1: CAATCTGAATTCCGGTCTCCC
DNA 2: TGGTGGCTACGACGGGATT
B28: UUAGAGC (DNA:RNA)
RNA: B6 RNA with C25U, A28G, U29A
DNA 1: CAATCTGAATTCCGGTCTCCC
DNA 2: TGGTGGCTACGACGGGATT
B29: GGCGCAG (DNA:RNA)
RNA: B1 RNA with U25G, C26G, U27C, U28G, C30A
DNA 1: CAATCTGAATTCCGGTCTCCC
DNA 2: TGGTGGCTACGACGGGATT
B30: AGAGCUU (DNA:RNA)
RNA: B2 RNA with G27A, C28G, A29C
DNA 1: CAATCTGAATTCCGGTCTCCC
DNA 2: TGGTGGCTACGACGGGATT
B31: CGCCCGA (DNA:RNA)
RNA: B2 RNA with A25C, G27C, A29C, U30G, U31A
DNA 1: CAATCTGAATTCCGGTCTCCC
DNA 2: TGGTGGCTACGACGGGATT

The binders below were run against T1, RBFOX1 RRM (assay: EMSA; HiTS-Eq, 1 nM pool, 10 min; buffer printed only for the single-RNA assays: 10 mM Tris pH 7.5, 150 mM NaCl, 3.4 mM EDTA, 0.001% NP-40, 30 C). Conditions: tags: His6 N-terminal (pET28a); label: 5' 32P.
In short: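 These values rest on relative association constants, computed from read-count changes of each RNA species versus the control reaction and normalised to the cognate motif. Reads came from free RNA recovered by 8% native PAGE after purified RbFox RRM (wild type or mutant) at increasing concentrations was equilibrated for 10 min in 50 µL with 1 nM of a 5′-radiolabelled pool with 7 randomized nucleotides and DNA-annealed flanks.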

Row | Binder | binding signal
1 | B1 | 0.00707 KA relative to UGCAUGU
2 | B2 | 0.0115 KA relative to UGCAUGU
3 | B3 | 0.00856 KA relative to UGCAUGU
4 | B4 | 0.00194 KA relative to UGCAUGU
5 | B5 | 0.0118 KA relative to UGCAUGU
6 | B6 | 0.0102 KA relative to UGCAUGU
7 | B7 | 0.0135 KA relative to UGCAUGU
8 | B8 | 0.00147 KA relative to UGCAUGU
9 | B9 | 0.0222 KA relative to UGCAUGU
10 | B10 | 0.012 KA relative to UGCAUGU
11 | B11 | 0.00741 KA relative to UGCAUGU
12 | B12 | 0.0253 KA relative to UGCAUGU
13 | B13 | 0.00583 KA relative to UGCAUGU
14 | B14 | 0.0205 KA relative to UGCAUGU
15 | B15 | 0.0141 KA relative to UGCAUGU
16 | B16 | 0.00681 KA relative to UGCAUGU

Row | Binder | binding signal
17 | B17 | 0.013 KA relative to UGCAUGU
18 | B18 | 0.00208 KA relative to UGCAUGU
19 | B19 | 0.000915 KA relative to UGCAUGU
20 | B20 | 0.0178 KA relative to UGCAUGU
21 | B21 | 0.00619 KA relative to UGCAUGU
22 | B22 | 0.0102 KA relative to UGCAUGU
23 | B23 | 0.0105 KA relative to UGCAUGU
24 | B24 | 0.0065 KA relative to UGCAUGU
25 | B25 | 0.00159 KA relative to UGCAUGU
26 | B26 | 0.0131 KA relative to UGCAUGU
27 | B27 | 0.00663 KA relative to UGCAUGU
28 | B28 | 0.0126 KA relative to UGCAUGU
29 | B29 | 0.0128 KA relative to UGCAUGU
30 | B30 | 0.00761 KA relative to UGCAUGU
31 | B31 | 0.012 KA relative to UGCAUGU
